Experimental data: the supplement of paper PMC10126150
Sequences with one replicate were seen in a single cluster, so their values are uncertain.

Tested on: ATP
Test: switch fluorescence ratio, 500 uM ATP over buffer (Cy3 cluster intensity, sum of 5 cycles each) (fold (ratio)); higher = stronger signal-on switching upon ATP binding; sequences stand for … in TCGTCGGCAGCGTCAGATGTGTATAAGAGACAGTTTTTTTTTTTTTTTTTTTTTTTTT…TC
Conditions: aptamer strand: ATP DNA aptamer (quencher-CACCTGGGGGAGTATTGCGGAGGAAGG + anchor), 100 nM annealed; ATP concentration: 500 uM; one replicate
Outline: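 Clusters carrying Cy3-labelled switching strands on a modified Illumina MiSeq flow-cell were annealed to 100 nM quencher-labelled ATP aptamer and imaged in selection buffer. They were imaged again after 15 min with 500 uM ATP at 22 °C, over five buffer/ATP cycles with NaOH stripping and re-annealing in between. For each cluster, the fluorescence ratio is the summed Cy3 intensity of the target cycles divided by that of the buffer cycles, averaged per switch-domain sequence. Clusters outside 100-1000 RFU were left out.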
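Further: ATP exposure 15 min at 22 °C before imaging.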

Row | Sequence | switch fluorescence ratio
1 | CTTGGCATTA | 1.22
2 | CACATTCTGT | 1.01
3 | AAGATATCGC | 0.989
4 | GTTTTTTGG | 0.997
5 | TACCCGTTTG | 1.07
6 | ATCATCCATC | 1.03
7 | GCCTATTCCG | 1.01
8 | AAAAAAGG | 1.03
9 | TCATTATCGT | 0.989
10 | ACTAGTTGGG | 0.998
11 | TATATTCATG | 1.04
12 | CTGCGCGTC | 1.17
13 | TGCTTAGTAA | 1.03
14 | CTTTCTGGTA | 0.998
15 | ACGATAAGGG | 1.06
16 | TCTGGAGGCA | 1.09
17 | TCCAGATGC | 1.28
18 | GGACAATACG | 1.15
19 | ACCCCCGCAA | 2.23
20 | GGTTTTACAA | 0.999
21 | TCATGCTGGA | 0.985
22 | GATTCGTGCT | 0.925
23 | GTAGACAGCA | 1.01

Row | Sequence | switch fluorescence ratio
24 | CAGGAATCAA | 0.998
25 | TAGCGACACG | 1.01
26 | CATAGCACT | 1.16
27 | TATGCATCGT | 0.946
28 | TTTAGGGCAC | 1.07
29 | CAGCGCAGTA | 1.14
30 | AGAGATAGG | 0.995
31 | TTCATCCTAG | 1.06
32 | CATCATTTCG | 1.02
33 | GGATACCGAC | 1.23
34 | AGGAGTTTA | 0.984
35 | CATTGTGAA | 1.02
36 | GGGTCCGGGT | 1
37 | ATGTTCGTTG | 0.922
38 | TATTTCACGA | 1.3
39 | GAGTGGTTGA | 0.991
40 | CGCGCATGGG | 1.07
41 | AACACAGGTC | 1.02
42 | CTCATTGGCT | 0.987
43 | TTTCAGTAT | 0.991
44 | TAGGGTGGTA | 0.995
45 | GAAGCGACCT | 1.03
46 | CGGTCGGCCG | 0.977

Row | Sequence | switch fluorescence ratio
47 | ACAATTGCCC | 1.05
48 | GGGTGGGAGC | 1.02
49 | GGTAACGCTC | 1.04
50 | GATGTTTGT | 0.981
51 | GTAGGTGAGT | 0.993
52 | GGTGAGCATG | 0.963
53 | AAGGGTCCCC | 1.03
54 | CAAACTCTTG | 1
55 | GAGACAGAGC | 1.01
56 | TATCTGCTTC | 1.08
57 | AAGGTCCCCT | 0.969
58 | ACTTCGTTGT | 1.02
59 | AAGGGCCGAG | 1.01
60 | TTCCGGGCAT | 2.7
61 | CAACGCGGCG | 0.944
62 | TTCAAGATGC | 1.38
63 | AGCGTCGAGG | 1.01
64 | AATTAACTCA | 1.06
65 | GTGGCTGTGC | 0.958
66 | GGACGTGAAA | 1.01
67 | CCCCCGTCGT | 1.31
68 | TTATTTCTGA | 1.01
69 | TTGTTATATA | 0.968

Row | Sequence | switch fluorescence ratio
70 | GTCGCCTGTC | 1
71 | TATTGT | 1.03
72 | CAATCGGGTC | 0.956
73 | GATATTTACT | 1.04
74 | TGATGGAAC | 1.01
75 | ACAATGTTCA | 1.07
76 | ACTAGACAAT | 1.11
77 | AGGATAGATT | 0.989
78 | GGCGTCCCCG | 1.04
79 | CAGTATACGA | 1.06
80 | TCAGAGTTT | 0.979
81 | GGGTCTAATA | 1.01
82 | AATTGTTT | 1.03
83 | CCTGCCCCCT | 1.14
84 | GGTGGTCCCC | 1.03
85 | GCTTATCTAT | 0.999
86 | GCTTGTGCGC | 1.05
87 | GTTCGAGTTC | 0.986
88 | ACGACTGACG | 1.16
89 | CATGTAATA | 1.03
90 | GTAACTTTAT | 1.02
91 | TCGTGTATAA | 0.97
92 | CGTGGAAATC | 1

Row | Sequence | switch fluorescence ratio
93 | GGTGGAACGA | 1.01
94 | GGAAGGGACC | 0.931
95 | TTCTTCTACT | 1.07
96 | CTAACGAGTG | 0.962
97 | GTAAATCCTT | 1.02
98 | ACGTATCTAT | 1.15
99 | ACCGGGTCGT | 0.978
100 | GAGTCGTTGC | 0.99
101 | AAAATTCTCC | 1.04
102 | GCACCGTTGG | 1.03
103 | TGGAAAATGG | 0.95
104 | TCTAAGGGTC | 0.95
105 | CGTGATAGGT | 1.02
106 | ATATTGTTAC | 1.01
107 | AGTAGCTAAT | 1.02
108 | ATGGCCCCTT | 1.02
109 | TGTTTTAGCC | 0.944
110 | GCCCACTTCC | 1.73
111 | TGATATTTGG | 1
112 | TAGCCCTCCA | 1.06
113 | CCCGGCCTAT | 1.02
114 | CACGGTAGC | 1.1
115 | TTTTTGTCAA | 0.985

Row | Sequence | switch fluorescence ratio
116 | AAGCTATGG | 1.04
117 | GCCTACCTGT | 1.05
118 | CGGGGGTCAC | 1.03
119 | ATTCTTAGTT | 1.03
120 | GGGTCCAATG | 1.03
121 | TGAGAGTCTT | 1.01
122 | CCACGGCTTT | 1.12
123 | CTATCGTAGG | 0.999
124 | AAGCCGGTCA | 1.03
125 | ACCTGGAAC | 1.08
126 | CGACATCAG | 0.993
127 | TTTAGCGCGT | 1.01
128 | CCGAGGTGGG | 1.06
129 | GACGGGTTTA | 1.03
130 | TGGTAAGACA | 1.03
131 | TTGAATGGAT | 1.01
132 | TTATAATGTC | 1.08
133 | TGATGTGCTT | 1.01
134 | CTTGGTCCTA | 0.985
135 | CCGTTCTCG | 1.03
136 | AGGGCCATAA | 0.979
137 | GGTGCCTCGG | 1.06
138 | CGACAAGCTC | 1.53

Row | Sequence | switch fluorescence ratio
139 | CGAAGGTTAC | 1.97
140 | TTCAGAAGAT | 0.992
141 | GGACTCTCAA | 1.07
142 | GGCCTCGAAT | 0.996
143 | CGGTTAGGAG | 0.995
144 | ATTTGAAGAC | 1.05
145 | TCTATATGTC | 1.03
146 | AGGTTAGCCG | 1.14
147 | TCGGTCTCGC | 1.02
148 | GCCGTCAGCT | 0.982
149 | GTTCAAGAAA | 0.991
150 | TAACGTGAGC | 1.12
151 | GTATTATATG | 0.972
152 | TGCTTTTCGA | 1.02
153 | CTTTGGGTCC | 1.04
154 | AGGTTGAGCG | 1
155 | ATTGAGCCTA | 0.934
156 | CACATGCGAT | 1.02
157 | GACGTTCACT | 1.18
158 | TGGCCAGCAC | 1.07
